# From PubChem BioAssay AID1347073 (National Center for Advancing Translational Sciences (NCATS), 2019)
# Screen size: about 45,000 compounds; about 200 (0.44%) were called active. Roughly 7% stayed inconclusive and do not appear here. Calls follow the shape of the dose curve; as a rule, active = well fitted activation curve with a large enough effect; inconclusive = small, poorly fitted or top-dose-only effect; inactive = no such curve, though single readings can be large or run the other way. This is one part of the list.
# Assay: qHTS of TDP-43 Inhibitors: NCGC Sytravon Library Screen; also: 0% is about no effect; nearly all actives have a fitted effect of over 55% in size
# Conditions: yeast TDP-43 toxicity rescue, BacTiter-Glo growth, 24 h; series mostly up to 46.1 µM; growth rescue (activation): at the top concentration
# How it was run: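 TDP-43-expressing yeast, pregrown in raffinose, seeded at OD600 0.02 in galactose medium with compound for 24 hr at 30 deg C. Growth read by BacTiter-Glo luminescence, so rescue of toxicity appears as activation.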
row,Structure (SMILES),growth rescue (activation)
1,Cc1cc(Cl)ccc1OCC(=O)NN1C(=O)C2C3C=CC(C3)C2C1=O (configuration not stated),inactive: 2.51%
2,CCOC(=O)c1ccc(NC(=O)c2c(NC(=O)CCC(=O)O)sc3c2CCCCC3)cc1,inactive: -3.66%
3,CCNCCC(CCC(C)C)c1ccc2c(c1)OCO2 (configuration not stated),inactive: 1.33%
4,COc1ncnc2c1oc1nc(CC(C)C)c3c(c12)CCCC3,inactive: 6.89%
5,CS(=O)(=O)N(CC(=O)NCCSCc1ccccc1)c1ccccc1,inactive: -0.627%
6,COc1ccc(N2CCN(c3ccc([N+](=O)[O-])cc3Cl)CC2)cc1,inactive: 3.99%
7,Nc1n[nH]c(-c2cccc([N+](=O)[O-])c2)n1,inactive: 15.4%
8,O=C(Cn1cnc2ccccc2c1=O)NNC(=O)c1ccccc1F,inactive: 7.49%
9,COc1ccccc1CC(=O)Nc1ccc(S(=O)(=O)N2CCN(C)CC2)cc1,inactive: 12.3%
10,CCOC(=O)c1ccc2c(c1)C1C=CCC1C(C(=O)OCC)N2 (configuration not stated),inactive: 17.5%
11,CN1CCN(S(=O)(=O)c2ccc(C(=O)NC3CCCCC3)cc2)CC1,inactive: 6.53%
12,CCOc1ccc(OCCCCOc2ccccc2C(C)=O)cc1,inactive: 18.2%
13,O=C(c1cc([N+](=O)[O-])ccc1N1CCN(S(=O)(=O)c2ccc(Cl)c(Cl)c2)CC1)N1CCOCC1,inactive: -2.48%
14,O=C(O)c1ccc(CN2C(=O)c3cccc4c([N+](=O)[O-])ccc(c34)C2=O)cc1,inactive: 1.14%
15,Cn1c(SCC(=O)NC2CCCCCC2)nnc1-c1cccs1,inactive: 23.3%
16,CN(C)CCn1cnc2c1c(=O)n(C)c(=O)n2C,inactive: 5.04%
17,CCCCNC(=O)c1ccc2nc(CC)c(N(CC)CCN(C)C)n2c1,inactive: 5.5%
18,O=[N+]([O-])c1ccc(/C=N/Nc2nc(NCc3ccccc3)nc(N3CCOCC3)n2)cc1,inactive: -2.74%
19,O=C(O)C1CC=CCC1C(=O)NCCCCc1ccccc1 (configuration not stated),inactive: 5.21%
20,COC(=O)c1c(NC(C)=O)sc2c1CCCCC2,inactive: 7.5%
21,COc1cc(C(=O)OCC(=O)NC(C)CCc2ccccc2)cc(OC)c1OC (configuration not stated),inactive: -15.5%
22,COc1ccc2[nH]c(=O)c(CN(C(=O)c3cccnc3)c3ccccc3C)cc2c1,inactive: -14.7%
23,COc1cccc(NC(=O)N2CCCC(C(=O)NC3CCCCC3C)C2)c1 (configuration not stated),inactive: 18.4%
24,CCn1c(SCC(=O)Nc2ccc3c(c2)OCO3)nnc1C(C)C,inactive: -1.12%
25,COc1cc(NC(=O)c2cccc([N+](=O)[O-])c2)ccc1NC(=O)c1cc2ccccc2o1,inactive: -18%
26,COc1cccc(NC(=O)Nc2cccn(Cc3ccc(C)cc3)c2=O)c1,inactive: -1.79%

row,Structure (SMILES),growth rescue (activation)
1,Cc1ccc(NC(=O)C2CC(O)CN2C(=O)OCc2ccccc2)c(C)c1 (configuration not stated),inactive: -4.67%
2,O=C(Cc1ccccc1)Nc1ccc(Br)c(Cl)c1,inactive: 28.7%
3,COCCn1c(-c2cccs2)csc1=Nc1cccnc1,inactive: 0.255%
4,CCC(C)(C)NC(=O)CN(Cc1ccccc1)C(=O)CCC(=O)Nc1nccs1,inactive: -7.84%
5,CCC(C)Nc1nc(Cl)nc(N(C#N)CN2C(=O)c3ccccc3S2(=O)=O)n1 (configuration not stated),inactive: 0.127%
6,O=S1(=O)CCC(NC(=S)NCCNC(=S)NC2CCS(=O)(=O)C2)C1 (configuration not stated),inactive: 6.31%
7,COc1ccc(C(=O)NCc2ccc(S(N)(=O)=O)cc2)cc1[N+](=O)[O-],inactive: 12.5%
8,O=C(CN1C(=O)CSc2ccc(S(=O)(=O)N3CCOCC3)cc21)NCCCN1CCOCC1,inactive: -8.04%
9,COc1ccc(CNCCC(c2ccc(F)cc2)c2ccc(OC)cc2)cc1 (configuration not stated),inactive: 12.8%
10,COc1ccc(OCCNS(=O)(=O)Cc2ccccc2)cc1,inactive: 6.64%
11,COc1cc(OC)cc(-c2nnc(SCC(=O)Nc3ccc(C(=O)O)cc3)s2)c1,inactive: 0.705%
12,Cc1ccc(S(=O)(=O)N2CCN(C(=O)COC(=O)c3cncc(Br)c3)CC2)c(C)c1,inactive: 11.9%
13,COc1ccc2c(-c3ccccc3)cc(SCC(N)=O)nc2c1,inactive: 24.3%
14,O=C(CC1C(=O)NCCN1Cc1ccc(Cl)c(F)c1)NCCc1cccnc1 (configuration not stated),inactive: 6.72%
15,CNC(=S)N1CCN(C(c2ccccc2)c2ccccc2)CC1,inactive: 6.37%
16,O=C(O)Cc1sc(N/N=C\c2ccccc2)nc1-c1ccccc1,inactive: 5.25%
17,CC1CN(C(=O)COC(=O)c2cccc(S(=O)(=O)N3CCc4ccccc43)c2)CC(C)O1 (configuration not stated),inactive: -2.13%
18,CC(=O)Nc1cccc(Nc2nc(-c3ccccc3)nc3ccccc23)c1,inactive: 19.1%
19,CCOCc1c(C(=O)Nc2ccc3nc(N4CCOCC4)sc3c2)oc2ccccc12,inactive: 26.7%
20,CC(C)(C)C(=O)NC1CCN(CC(=O)Nc2ccc3c(c2)OCO3)CC1,inactive: -20.2%
21,CCN(CC)C(=O)Cn1c(=O)n(Cc2ccc(F)cc2)c(=O)c2sccc21,inactive: 10.9%
22,CCc1ccc(OCC(=O)Nc2ccc(S(=O)(=O)Nc3ccccn3)cc2)cc1,inactive: 7.68%
23,Cc1c(C(=O)OCC[N+]2(C)CCCCC2)oc2ccccc12,inactive: -31%
24,Cc1cccc(C(=O)NNC(=O)Nc2ccccc2)c1,inactive: -3.76%
25,CCCCc1c(C)nc2ccccc2c1SCCC(=O)O,inactive: 15.4%
26,COc1ccccc1CNC(=O)CSc1nn2c(=O)c(C(C)(C)C)nnc2s1,inactive: 15.9%
